Experimental findings from the antibiotic and cytotoxicity screens of Wong et al. (2023) are described below.

SMILES strings stand for the structures. The list shows a part of the results.

One assay concerns HSkMC. The assay can be described thus: cytotoxicity call (relative viability < 0.9). The following applies: 10 µM.
A further assay has as its system S. aureus RN4220. The assay is described as follows: growth inhibition call (relative growth <= 0.2). The following applies: 50 µM.

Regarding `C/C=C/c1ccc2c(c1)O[C@@H](CN(C)S(=O)(=O)c1ccccc1OC)[C@H](C)CN([C@@H](C)CO)S2(=O)=O`, the cytotoxicity call in the assay on HSkMC was “inactive”. In the assay on S. aureus RN4220, the growth inhibition call was “inactive”.
Take `CC(C)N1C[C@H](C)[C@@H](CN(C)Cc2ccc(Cl)c(Cl)c2)Oc2c(cccc2-c2nnc(-c3ccncc3)o2)C1=O`: the cytotoxicity call with HSkMC was “inactive”. For the same molecule, the growth inhibition call in the assay with S. aureus RN4220 is “inactive”.
As to `C[C@@H]1CCCCO[C@H](CN(C)C(=O)Nc2ccc(F)cc2)[C@@H](C)CN([C@H](C)CO)C(=O)c2cc(NC(=O)C3CCCCC3)ccc2O1`, in the assay with HSkMC, the cytotoxicity call was “inactive”. The growth inhibition call with S. aureus RN4220 was “inactive”.
With `C[C@@H]1CCCCO[C@@H](CN(C)Cc2ccccc2)[C@@H](C)CN([C@@H](C)CO)C(=O)c2cc(NC(=O)Cc3ccccc3)ccc2O1`, the cytotoxicity call in the assay on HSkMC is “inactive”. Besides, the growth inhibition call with S. aureus RN4220 was “inactive”.
`C[C@@H]1CCCCO[C@@H](CN(C)S(=O)(=O)c2ccc(F)cc2)[C@H](C)CN([C@@H](C)CO)C(=O)c2cc(NS(=O)(=O)c3ccc(Cl)cc3)ccc2O1`: in the assay on HSkMC, the cytotoxicity call is “inactive”. Besides, the growth inhibition call with S. aureus RN4220 was “inactive”.
As for `C[C@H](CO)N1C[C@H](C)[C@@H](CN(C)Cc2ccc(C(=O)Nc3ccccc3N)cc2)Oc2ccc(NC(=O)CCC(F)(F)F)cc2CC1=O`, the cytotoxicity call with HSkMC is “inactive”. In addition, the growth inhibition call with S. aureus RN4220 is “inactive”.
As for `Cc1noc(C)c1S(=O)(=O)N(C)C[C@H]1Oc2ccc(NS(=O)(=O)c3ccc(Cl)cc3)cc2CC(=O)N([C@@H](C)CO)C[C@@H]1C`, the cytotoxicity call with HSkMC is “inactive”. In addition, in the assay with S. aureus RN4220, the growth inhibition call was “inactive”.
In the case of `COc1cccc(NC(=O)N[C@@H]2CC[C@H](CC(=O)N3CCN(C)CC3)O[C@H]2CO)c1`, in the assay on HSkMC, the cytotoxicity call is “inactive”. The growth inhibition call with S. aureus RN4220 is “inactive”.
Regarding `O=C(C[C@H]1C[C@@H]2c3cc(NS(=O)(=O)c4ccccc4)ccc3O[C@@H]2[C@@H](CO)O1)NC1CCCCC1`, the cytotoxicity call with HSkMC was “inactive”. Besides, the growth inhibition call in the assay with S. aureus RN4220 is “inactive”.
In the case of `CCOC(=O)CC(=O)c1ccn(C)n1`, the cytotoxicity call with HSkMC is “inactive”. The growth inhibition call with S. aureus RN4220 is “inactive”.
`CO[C@H]1O[C@H](CO)[C@@H](OC(=O)Nc2ccccc2)[C@@H]2OC(=O)[C@@H](Cc3ccc4ccccc4c3)C/C=C/C[C@H](Cc3ccc4ccccc4c3)C(=O)O[C@@H]12`: in the assay with HSkMC, the cytotoxicity call is “inactive”. In the assay with S. aureus RN4220, the growth inhibition call is “inactive”.
Take `CCCNS(=O)(=O)c1c[nH]c(C(=O)OC)c1`: the cytotoxicity call in the assay on HSkMC is “inactive”. Besides, the growth inhibition call in the assay with S. aureus RN4220 is “inactive”.
As to `C[C@H]1CN([C@@H](C)CO)C(=O)c2cc(NS(C)(=O)=O)ccc2O[C@H]1CN(C)S(=O)(=O)c1ccc(Cl)cc1`, the cytotoxicity call with HSkMC is “inactive”. Moreover, in the assay with S. aureus RN4220, the growth inhibition call is “inactive”.
Turning to `C[C@@H]1CN([C@@H](C)CO)C(=O)c2cccc(NC(=O)Nc3ccc4c(c3)OCO4)c2O[C@@H]1CN(C)C(=O)Nc1ccc(C(F)(F)F)cc1`, the cytotoxicity call in the assay on HSkMC was “inactive”. Moreover, the growth inhibition call in the assay with S. aureus RN4220 was “inactive”.
Turning to `C[C@H](NC(=O)[C@@H]1CCCC[C@H]1C(=O)O)c1ccccc1.C[C@H](NC(=O)[C@H]1CCCC[C@H]1C(=O)O)c1ccccc1`, in the assay with HSkMC, the cytotoxicity call is “inactive”. In the assay with S. aureus RN4220, the growth inhibition call was “inactive”.
On to `C[C@@H]1CN([C@@H](C)CO)C(=O)c2cccc(NS(=O)(=O)c3cccs3)c2O[C@H]1CN(C)S(=O)(=O)c1ccc(F)cc1`, for which the cytotoxicity call with HSkMC is “inactive”. Also, the growth inhibition call in the assay on S. aureus RN4220 is “inactive”.
`C[C@H]1CCCCO[C@@H](CN(C)C(=O)c2ccncc2)[C@@H](C)CN([C@@H](C)CO)C(=O)c2cc(NS(=O)(=O)c3ccc(Cl)cc3)ccc2O1`: the cytotoxicity call in the assay on HSkMC is “inactive”. For the same molecule, in the assay on S. aureus RN4220, the growth inhibition call is “inactive”.
In the case of `C[C@H](CO)N1C[C@H](C)[C@@H](CN(C)C(=O)Nc2ccc(-c3ccccc3)cc2)OCc2ccccc2-c2c(n(C)c3ccccc23)C1=O`, in the assay on HSkMC, the cytotoxicity call is “inactive”. Further, the growth inhibition call in the assay on S. aureus RN4220 is “inactive”.
As to `O=C(O)c1cc(O)c2cccc(O)c2n1`, the cytotoxicity call with HSkMC is “inactive”. In addition, the growth inhibition call in the assay on S. aureus RN4220 is “inactive”.
With `COc1ccc([Si](C)(C)[C@@H]2[C@@H](CC(=O)N3Cc4ccccc4C[C@H]3CO)O[C@]3(C(=O)N(Cc4cccc(N5CCC5=O)c4)c4ccccc43)[C@H]2C)cc1`, the cytotoxicity call in the assay with HSkMC is “inactive”. Moreover, in the assay with S. aureus RN4220, the growth inhibition call is “inactive”.
As for `C[C@H](CO)N1C[C@H](C)[C@H](CN(C)Cc2ccc(Oc3ccccc3)cc2)Oc2ccc(NS(=O)(=O)c3ccccc3)cc2CC1=O`, the cytotoxicity call with HSkMC is “inactive”. For the same molecule, the growth inhibition call in the assay on S. aureus RN4220 was “inactive”.
Take `C[C@H]1CN([C@@H](C)CO)C(=O)c2cccc(NS(=O)(=O)c3ccc(F)cc3)c2O[C@H]1CN(C)Cc1ccc(-c2ccccc2)cc1`: in the assay with HSkMC, the cytotoxicity call was “inactive”. Moreover, in the assay with S. aureus RN4220, the growth inhibition call is “inactive”.
As for `C[C@H](CO)N1C[C@H](C)[C@@H](CN(C)Cc2ccc3c(c2)OCO3)Oc2ccc(NC(=O)Nc3cccc4ccccc34)cc2CC1=O`, in the assay on HSkMC, the cytotoxicity call was “inactive”. The growth inhibition call in the assay on S. aureus RN4220 was “inactive”.
Turning to `O=C(C[C@@H]1CC[C@H]2[C@@H](COC[C@@H](O)CN2C(=O)Nc2ccc(Cl)cc2)O1)NCCc1ccncc1`, in the assay on HSkMC, the cytotoxicity call is “inactive”. In the assay on S. aureus RN4220, the growth inhibition call was “inactive”.
In the case of `C[C@H]1CN([C@@H](C)CO)C(=O)Cc2cc(NC(=O)CCCCCC(=O)Nc3ccccc3N)ccc2O[C@H]1CN(C)C(=O)Nc1cccc2ccccc12`, in the assay on HSkMC, the cytotoxicity call is “inactive”. Also, the growth inhibition call in the assay on S. aureus RN4220 was “inactive”.
In the case of `C[C@@H]1CN([C@H](C)CO)C(=O)c2cccc(NS(=O)(=O)c3cccs3)c2O[C@@H]1CN(C)CC1CC1`, the cytotoxicity call in the assay on HSkMC was “inactive”. The growth inhibition call in the assay with S. aureus RN4220 was “inactive”.
With `COc1nn(C)cc1-c1n[nH]c(=S)n1C`, the cytotoxicity call in the assay with HSkMC is “inactive”. In addition, the growth inhibition call with S. aureus RN4220 is “inactive”.
As to `COc1nc(N)nc2c1ncn2[C@@H]1O[C@H](CO)[C@@H](O)[C@@H]1O`, the cytotoxicity call with HSkMC was “inactive”. Also, the growth inhibition call with S. aureus RN4220 is “inactive”.
As to `C[C@H]1CN([C@@H](C)CO)C(=O)Cc2cc(NC(=O)Cc3ccccc3)ccc2O[C@@H]1CN(C)Cc1ccc(Oc2ccccc2)cc1`, the cytotoxicity call in the assay on HSkMC (human skeletal muscle cells) was “inactive”. Further, in the assay with S. aureus RN4220, the growth inhibition call was “inactive”.
